Results on 86 sequences are retold here after the supplement of paper PMC3334620.

In all, about 33,000 sequences were measured (“E-score (-0.5 to 0.5)”: median about -0.036, highest 2% from about 0.37 on). This is one part of the list.

This assay addresses T1, Yer064c (UniProt P40041).
T1 sequence: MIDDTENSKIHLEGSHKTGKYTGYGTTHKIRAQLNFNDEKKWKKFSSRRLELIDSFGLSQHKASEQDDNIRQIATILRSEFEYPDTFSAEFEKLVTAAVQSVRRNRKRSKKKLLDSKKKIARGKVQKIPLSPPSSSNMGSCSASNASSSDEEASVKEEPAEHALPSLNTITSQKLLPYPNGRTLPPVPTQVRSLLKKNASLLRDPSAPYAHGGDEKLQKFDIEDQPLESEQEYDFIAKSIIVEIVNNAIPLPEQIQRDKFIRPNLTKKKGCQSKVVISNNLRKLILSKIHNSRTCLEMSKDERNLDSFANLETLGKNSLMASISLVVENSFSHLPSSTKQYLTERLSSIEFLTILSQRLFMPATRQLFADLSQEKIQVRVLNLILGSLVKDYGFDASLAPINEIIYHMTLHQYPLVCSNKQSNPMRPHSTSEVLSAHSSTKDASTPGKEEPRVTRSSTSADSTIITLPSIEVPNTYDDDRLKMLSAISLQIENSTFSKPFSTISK
Nature of the assay: PBM E-score (8-mer binding enrichment) (E-score (-0.5 to 0.5)); higher = stronger / more preferred TF binding; most listed sequences are background and not binding sites. To be noted: protein concentration: 200 nM; construct: GST-full length. Put shortly:
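Masliner-normalised scans of fluorescent anti-GST signal were the basis for scoring. That signal came from GST-tagged yeast transcription factors applied at about 100-200 nM to double-stranded universal all-10-mer Agilent arrays on fresh or once-stripped slides. Each ungapped eight-base word, pooled with its reverse complement, received an E-score from the Universal PBM Analysis Suite.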
For CATTAATG, the “PBM E-score” value was found to be 0.0773.

Consider GGGACTAC, for which the “PBM E-score” value was 0.228.

CTTTTCAC: the “PBM E-score” value was -0.159.

In the case of CTGATTAA, the “PBM E-score” value is 0.405.

With AATATGCC, the “PBM E-score” value was -0.138.

Turning to CTTGGTAC, the “PBM E-score” value was -0.0727.

For the sequence CAGTAATA, the “PBM E-score” value was 0.124.

Take CGAGCGGA: the “PBM E-score” value was -0.153.

In the case of CAATGCAC, the “PBM E-score” value amounted to 0.0625.

For the sequence GAGGGCGC, the “PBM E-score” value is -0.45.

Turning to CATAGATG, the “PBM E-score” value was 0.0355.

In the case of GGAGAGCA, the “PBM E-score” value is -0.193.

As for GACGCAGA, the “PBM E-score” value came to 0.0426.

For the sequence GGAAGGAC, the “PBM E-score” value stood at 0.142.

On to GAGTTAAA, for which the “PBM E-score” value turned out to be 0.00363.

For the sequence ATCTGAAG, the “PBM E-score” value came to 0.0612.

As to AATCGTTC, the “PBM E-score” value stood at 0.0572.

As for AAGTACAG, the “PBM E-score” value is -0.121.

Turning to CCTGGGTC, the “PBM E-score” value was -0.0626.

Turning to AGTTGATG, the “PBM E-score” value was 0.0667.

As to CGCAGCAA, the “PBM E-score” value worked out at 0.00828.

For AAATTGCT, the “PBM E-score” value is -0.3.

With ATCCCAAG, the “PBM E-score” value was -0.179.

Regarding GGGCGCTA, the “PBM E-score” value was -0.35.

As for ACCCACAC, the “PBM E-score” value is 0.127.

Consider TGTCTAAA, for which the “PBM E-score” value worked out at 0.166.

Regarding ATCTTATC, the “PBM E-score” value came out at 0.0972.

As for CGTCCAAG, the “PBM E-score” value was -0.177.

Take ACCCGCGA: the “PBM E-score” value worked out at 0.0279.

For AGATGTCG, the “PBM E-score” value was -0.0862.

As for AACTCGGG, the “PBM E-score” value is -0.0331.

For the sequence CCTAAGAC, the “PBM E-score” value was 0.0138.

Take AGGCGGCA: the “PBM E-score” value is -0.203.

Turning to CATGGTCG, the “PBM E-score” value stood at 0.082.

For GGCAACCC, the “PBM E-score” value was -0.23.

Take AACACATT: the “PBM E-score” value came out at 0.047.

As for CAACACTA, the “PBM E-score” value stood at 0.0847.

With ACTATGCT, the “PBM E-score” value is 0.106.

Consider GAAATGGA, for which the “PBM E-score” value is 0.0452.

For the sequence AGTTGTCG, the “PBM E-score” value was -0.0742.

On to TTAAATAA, for which the “PBM E-score” value was determined as 0.0382.

With ACAAGGCG, the “PBM E-score” value is -0.166.

As to TCGCGCAA, the “PBM E-score” value came to 0.137.

On to ATCCGTAA, for which the “PBM E-score” value is -0.178.

For CGTGGAGC, the “PBM E-score” value was -0.124.

Consider CAGGAATG, for which the “PBM E-score” value is -0.0706.

Consider GAGCAGAA, for which the “PBM E-score” value is -0.0247.

As to CGCGCCTA, the “PBM E-score” value was -0.0962.

Take ACTTGGAT: the “PBM E-score” value is 0.142.

For the sequence GGATAGGA, the “PBM E-score” value is -0.116.

On to TGAGTAAA, for which the “PBM E-score” value is 0.242.

For the sequence AAAAAAAT, the “PBM E-score” value was -0.13.

On to GAAAACGA, for which the “PBM E-score” value is -0.0188.

Consider CTCAGAGC, for which the “PBM E-score” value is 0.0372.

For TGGTAACA, the “PBM E-score” value is -0.124.

In the case of AGAGTAGC, the “PBM E-score” value was -0.174.

As to AAATTACC, the “PBM E-score” value was -0.00692.

For GAGAAAAC, the “PBM E-score” value is -0.109.

As to ATATGAAA, the “PBM E-score” value amounted to 0.0396.

Turning to ATAATTGG, the “PBM E-score” value was -0.216.

For AATATAGT, the “PBM E-score” value was 0.268.

For CTGCAGTC, the “PBM E-score” value is 0.278.

On to TCCGACCA, for which the “PBM E-score” value amounted to 0.0238.

In the case of TATCAGAA, the “PBM E-score” value is -0.0227.

Take ATGAGTTC: the “PBM E-score” value was found to be 0.327.

As for AGACTATG, the “PBM E-score” value was found to be 0.319.

As to ATAACCGG, the “PBM E-score” value is -0.256.

Turning to GTATTATA, the “PBM E-score” value is 0.118.

Regarding GACTATGA, the “PBM E-score” value came to 0.435.

In the case of CGGCATAA, the “PBM E-score” value was -0.242.

As for CCCAAGTC, the “PBM E-score” value stood at 0.0126.

On to CACAGAAA, for which the “PBM E-score” value came to 0.12.

Take CCTCTCAC: the “PBM E-score” value was -0.213.

Consider GAAACGCA, for which the “PBM E-score” value was -0.0788.

In the case of TTAACCAA, the “PBM E-score” value was found to be 0.125.

In the case of CTGCCTCC, the “PBM E-score” value is -0.213.

Take CTCAGGGC: the “PBM E-score” value came out at 0.00968.

Consider AAAGGGGC, for which the “PBM E-score” value is -0.175.

Regarding AAGCCGGG, the “PBM E-score” value is -0.164.

With TCCCTACA, the “PBM E-score” value is -0.0704.

On to GTAGGAAC, for which the “PBM E-score” value turned out to be 0.128.

As to GAATACCA, the “PBM E-score” value was found to be 0.0124.

On to CGTTGTGA, for which the “PBM E-score” value came to 0.00457.

Consider CTTCCGCA, for which the “PBM E-score” value stood at 0.0663.

Consider CTATGGAA, for which the “PBM E-score” value is 0.0704.

As for CGAGTGGC, the “PBM E-score” value was -0.301.
